The record followed here is paper PMC9911399, “Two distinct binding modes provide the RNA-binding protein RbFox with extraordinary sequence specificity”.

T1: RBFOX1 RRM (Homo sapiens, UniProt Q9NWB1 109-208)
T1 sequence: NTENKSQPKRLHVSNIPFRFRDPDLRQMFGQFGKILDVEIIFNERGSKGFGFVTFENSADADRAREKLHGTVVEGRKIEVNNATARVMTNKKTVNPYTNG

B1: AGGUACG (DNA:RNA)
RNA: GGGAGACCGGAAUUCAGAUUGUCCAGGUACGUUAAAUCCCGUCGUAGCCACCA
DNA 1: CAATCTGAATTCCGGTCTCCC
DNA 2: TGGTGGCTACGACGGGATT
B2: UCGGCGG (DNA:RNA)
RNA: B1 RNA with A25U, G26C, U28G, A29C, C30G
DNA 1: CAATCTGAATTCCGGTCTCCC
DNA 2: TGGTGGCTACGACGGGATT
B3: UAUCCAU (DNA:RNA)
RNA: GGGAGACCGGAAUUCAGAUUGUCCUAUCCAUUUAAAUCCCGUCGUAGCCACCA
DNA 1: CAATCTGAATTCCGGTCTCCC
DNA 2: TGGTGGCTACGACGGGATT
B4: ACUGUUU (DNA:RNA)
RNA: B3 RNA with U25A, A26C, C28G, C29U, A30U
DNA 1: CAATCTGAATTCCGGTCTCCC
DNA 2: TGGTGGCTACGACGGGATT
B5: AGAACGG (DNA:RNA)
RNA: B1 RNA with G27A, U28A, A29C, C30G
DNA 1: CAATCTGAATTCCGGTCTCCC
DNA 2: TGGTGGCTACGACGGGATT
B6: CGGGAAG (DNA:RNA)
RNA: B1 RNA with A25C, U28G, C30A
DNA 1: CAATCTGAATTCCGGTCTCCC
DNA 2: TGGTGGCTACGACGGGATT
B7: ACUGUCA (DNA:RNA)
RNA: B1 RNA with G26C, G27U, U28G, A29U, G31A
DNA 1: CAATCTGAATTCCGGTCTCCC
DNA 2: TGGTGGCTACGACGGGATT
B8: AUCUAAA (DNA:RNA)
RNA: B1 RNA with G26U, G27C, C30A, G31A
DNA 1: CAATCTGAATTCCGGTCTCCC
DNA 2: TGGTGGCTACGACGGGATT
B9: UCGAUGU (DNA:RNA)
RNA: B3 RNA with A26C, U27G, C28A, C29U, A30G
DNA 1: CAATCTGAATTCCGGTCTCCC
DNA 2: TGGTGGCTACGACGGGATT
B10: CUUACCC (DNA:RNA)
RNA: B3 RNA with U25C, A26U, C28A, A30C, U31C
DNA 1: CAATCTGAATTCCGGTCTCCC
DNA 2: TGGTGGCTACGACGGGATT
B11: UAUAAGA (DNA:RNA)
RNA: B3 RNA with C28A, C29A, A30G, U31A
DNA 1: CAATCTGAATTCCGGTCTCCC
DNA 2: TGGTGGCTACGACGGGATT
B12: UAAAUAA (DNA:RNA)
RNA: B3 RNA with U27A, C28A, C29U, U31A
DNA 1: CAATCTGAATTCCGGTCTCCC
DNA 2: TGGTGGCTACGACGGGATT
B13: UCAACAU (DNA:RNA)
RNA: B3 RNA with A26C, U27A, C28A
DNA 1: CAATCTGAATTCCGGTCTCCC
DNA 2: TGGTGGCTACGACGGGATT
B14: AACGAUU (DNA:RNA)
RNA: B1 RNA with G26A, G27C, U28G, C30U, G31U
DNA 1: CAATCTGAATTCCGGTCTCCC
DNA 2: TGGTGGCTACGACGGGATT
B15: UAGCCAU (DNA:RNA)
RNA: B3 RNA with U27G
DNA 1: CAATCTGAATTCCGGTCTCCC
DNA 2: TGGTGGCTACGACGGGATT
B16: UAAAGGG (DNA:RNA)
RNA: B3 RNA with U27A, C28A, C29G, A30G, U31G
DNA 1: CAATCTGAATTCCGGTCTCCC
DNA 2: TGGTGGCTACGACGGGATT
B17: CAGGUAA (DNA:RNA)
RNA: B3 RNA with U25C, U27G, C28G, C29U, U31A
DNA 1: CAATCTGAATTCCGGTCTCCC
DNA 2: TGGTGGCTACGACGGGATT
B18: UCGGGAA (DNA:RNA)
RNA: B3 RNA with A26C, U27G, C28G, C29G, U31A
DNA 1: CAATCTGAATTCCGGTCTCCC
DNA 2: TGGTGGCTACGACGGGATT
B19: UUGUUUA (DNA:RNA)
RNA: B1 RNA with A25U, G26U, A29U, C30U, G31A
DNA 1: CAATCTGAATTCCGGTCTCCC
DNA 2: TGGTGGCTACGACGGGATT
B20: UUAAACA (DNA:RNA)
RNA: B1 RNA with A25U, G26U, G27A, U28A, G31A
DNA 1: CAATCTGAATTCCGGTCTCCC
DNA 2: TGGTGGCTACGACGGGATT
B21: GUAGAGG (DNA:RNA)
RNA: B1 RNA with A25G, G26U, G27A, U28G, C30G
DNA 1: CAATCTGAATTCCGGTCTCCC
DNA 2: TGGTGGCTACGACGGGATT
B22: AAGACAG (DNA:RNA)
RNA: B1 RNA with G26A, U28A, A29C, C30A
DNA 1: CAATCTGAATTCCGGTCTCCC
DNA 2: TGGTGGCTACGACGGGATT
B23: CCAGGGG (DNA:RNA)
RNA: B1 RNA with A25C, G26C, G27A, U28G, A29G, C30G
DNA 1: CAATCTGAATTCCGGTCTCCC
DNA 2: TGGTGGCTACGACGGGATT
B24: GCCGUAU (DNA:RNA)
RNA: B3 RNA with U25G, A26C, U27C, C28G, C29U
DNA 1: CAATCTGAATTCCGGTCTCCC
DNA 2: TGGTGGCTACGACGGGATT
B25: UAUACCU (DNA:RNA)
RNA: B3 RNA with C28A, A30C
DNA 1: CAATCTGAATTCCGGTCTCCC
DNA 2: TGGTGGCTACGACGGGATT
B26: CAUACGU (DNA:RNA)
RNA: B3 RNA with U25C, C28A, A30G
DNA 1: CAATCTGAATTCCGGTCTCCC
DNA 2: TGGTGGCTACGACGGGATT
B27: GUGAGCU (DNA:RNA)
RNA: B1 RNA with A25G, G26U, U28A, A29G, G31U
DNA 1: CAATCTGAATTCCGGTCTCCC
DNA 2: TGGTGGCTACGACGGGATT
B28: GAAAAUU (DNA:RNA)
RNA: B3 RNA with U25G, U27A, C28A, C29A, A30U
DNA 1: CAATCTGAATTCCGGTCTCCC
DNA 2: TGGTGGCTACGACGGGATT
B29: UUGUGGU (DNA:RNA)
RNA: B1 RNA with A25U, G26U, A29G, C30G, G31U
DNA 1: CAATCTGAATTCCGGTCTCCC
DNA 2: TGGTGGCTACGACGGGATT
B30: ACCACGU (DNA:RNA)
RNA: B3 RNA with U25A, A26C, U27C, C28A, A30G
DNA 1: CAATCTGAATTCCGGTCTCCC
DNA 2: TGGTGGCTACGACGGGATT
B31: CCUAGCU (DNA:RNA)
RNA: B3 RNA with U25C, A26C, C28A, C29G, A30C
DNA 1: CAATCTGAATTCCGGTCTCCC
DNA 2: TGGTGGCTACGACGGGATT

Numbering of substitutions follows the chain as printed; changes in the protein carry UniProt numbers. This is one part of the list.

The assay deals with T1, RBFOX1 RRM. The assay can be described thus: EMSA; HiTS-Eq, 1 nM pool, 10 min; buffer printed only for the single-RNA assays: 10 mM Tris pH 7.5, 150 mM NaCl, 3.4 mM EDTA, 0.001% NP-40, 30 C. The note with it: tags: His6 N-terminal (pET28a); label: 5' 32P. The method in brief:
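These values rest on relative association constants, computed from read-count changes of each RNA species versus the control reaction and normalised to the cognate motif. Reads came from free RNA recovered by 8% native PAGE after purified RbFox RRM (wild type or mutant) at increasing concentrations was equilibrated for 10 min in 50 µL with 1 nM of a 5′-radiolabelled pool with 7 randomized nucleotides and DNA-annealed flanks.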
Turning to B1, the binding signal is 0.0122 KA relative to UGCAUGU.
For the molecule B2, the binding signal was 0.0227 KA relative to UGCAUGU.
In the case of B3, the binding signal was 0.00534 KA relative to UGCAUGU.
On to B4, for which the binding signal was 0.00717 KA relative to UGCAUGU.
As for B5, the binding signal was 0.0114 KA relative to UGCAUGU.
In the case of B6, the binding signal is 0.0198 KA relative to UGCAUGU.
Then B7, with 0.00568 KA relative to UGCAUGU; and B8, with 0.00231 KA relative to UGCAUGU.
Turning to B9, the binding signal is 0.0161 KA relative to UGCAUGU.
For the molecule B10, the binding signal was 0.00105 KA relative to UGCAUGU.
On to B11, for which the binding signal is 0.00743 KA relative to UGCAUGU.
Turning to B12, the binding signal is 0.00303 KA relative to UGCAUGU.
As to B13, the binding signal is 0.0012 KA relative to UGCAUGU.
The result for B14 reads 0.00375 KA relative to UGCAUGU; that for B15, 0.00798 KA relative to UGCAUGU; that for B16, 0.00447 KA relative to UGCAUGU.
For the molecule B17, the binding signal was 0.00565 KA relative to UGCAUGU.
B18: the binding signal was 0.0104 KA relative to UGCAUGU.
Turning to B19, the binding signal was 0.012 KA relative to UGCAUGU.
For B20, the binding signal is 0.00267 KA relative to UGCAUGU.
With B21, the binding signal is 0.0106 KA relative to UGCAUGU.
With B22, the binding signal was 0.00411 KA relative to UGCAUGU.
For B23, the binding signal was 0.00327 KA relative to UGCAUGU.
Turning to B24, the binding signal was 0.00914 KA relative to UGCAUGU.
Consider B25, for which the binding signal is 0.001 KA relative to UGCAUGU.
With B26, the binding signal was 0.00378 KA relative to UGCAUGU.
In the case of B27, the binding signal is 0.0163 KA relative to UGCAUGU.
The result for B28 reads 0.00167 KA relative to UGCAUGU.
Consider B29, for which the binding signal was 0.0188 KA relative to UGCAUGU.
On to B30, for which the binding signal is 0.00412 KA relative to UGCAUGU.
On to B31, for which the binding signal is 0.00722 KA relative to UGCAUGU.
